The supplement of paper PMC4967469
IC50 is the fitted dose that halves viability relative to control wells, and lower means more sensitive; a limit (>, <) means that the fit lies beyond the doses tested. AUC is the area under the same curve over the 256-fold range up to the top dose, as a fraction; the more sensitive the line, the further below 1. For some assays here: Where the top dose is marked as inferred, it was derived from the fitted curves, not read from the paper.

How the values were obtained:
Assay in all cases: Viability of human cancer cell lines after 72 h of drug (GDSC screen)
Bexarotene = compound: C=C(c1ccc(C(=O)O)cc1)c1cc2c(cc1C)C(C)(C)CCC2(C)C [Bexarotene]; conditions: top dose 8 µM
Procedure: (§1)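 Human cancer cell lines in 384-well plates, medium with 10% serum, drug for 72 h over a 256-fold dose range (nine 2-fold or five 4-fold steps up to the top dose). Adherent lines were fixed and stained with the nucleic acid dye Syto60, suspension lines read with resazurin; signal relative to control wells, capped at 0 and 100%. One two-parameter sigmoid per drug and line, fitted in a mixed model over all curves with the slope shared within a line.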

BMS-345541 = compound: Cc1ccc2nc(NCCN)c3ncc(C)n3c2c1 [BMS-345541]; conditions: top dose 16 µM
Procedure: as §1

XAV 939 = compound: Oc1nc(-c2ccc(C(F)(F)F)cc2)nc2c1CSCC2 [XAV 939]; conditions: top dose 5 µM; top dose inferred
Procedure: as §1

GSK-650394 = compound: O=C(O)c1ccc(-c2c[nH]c3ncc(-c4ccccc4)cc23)cc1C1CCCC1 [GSK-650394]; conditions: top dose 16 µM; top dose inferred
Procedure: as §1

NPK76-II-72-1 = compound: COc1cc(C(=O)NC2CCN(C)CC2)ccc1Nc1ncc2c(n1)N(C1CCCC1)C(C)CC(=O)N2C [NPK76-II-72-1]; conditions: top dose 10.24 µM; top dose inferred
Procedure: as §1

YK 4-279 = compound: COc1ccc(C(=O)CC2(O)C(=O)Nc3c(Cl)ccc(Cl)c32)cc1 [YK 4-279]; conditions: top dose 10 µM
Procedure: as §1

Etoposide = compound: COc1cc([C@@H]2c3cc4c(cc3[C@@H](O[C@@H]3O[C@@H]5CO[C@@H](C)O[C@H]5[C@H](O)[C@H]3O)[C@H]3COC(=O)[C@H]23)OCO4)cc(OC)c1O [Etoposide]; conditions: top dose 16 µM
Procedure: as §1

AZD7762 = compound: NC(=O)Nc1cc(-c2cccc(F)c2)sc1C(=O)N[C@H]1CCCNC1 [AZD7762]; conditions: top dose 2 µM
Procedure: as §1

Row | Cell Line | AUC (Bexarotene) | IC50 (Bexarotene) | AUC (BMS-345541) | IC50 (BMS-345541) | AUC (XAV 939) | IC50 (XAV 939) | AUC (GSK-650394) | IC50 (GSK-650394) | AUC (NPK76-II-72-1) | IC50 (NPK76-II-72-1) | AUC (YK 4-279) | IC50 (YK 4-279) | AUC (Etoposide) | IC50 (Etoposide) | AUC (AZD7762) | IC50 (AZD7762)
1 | 8-MG-BA (glioma, adherent) | 0.912 | > 8 µM | 0.882 | 15.1 µM | 0.937 | > 5 µM | 0.874 | 13.9 µM | 0.904 | > 10.2 µM | 0.522 | 0.714 µM | 0.152 | 0.0925 µM | 0.639 | 0.294 µM
2 | 42-MG-BA (glioma, adherent) | 0.961 | > 8 µM | 0.96 | > 16 µM | 0.974 | > 5 µM | 0.802 | 8.5 µM | 0.952 | > 10.2 µM | 0.744 | 3.3 µM | 0.835 | 11.5 µM | 0.626 | 0.285 µM
3 | 451Lu (melanoma, adherent) | 0.918 | > 8 µM | 0.908 | > 16 µM | 0.988 | > 5 µM | 0.885 | > 16 µM | 0.973 | > 10.2 µM | 0.731 | 2.75 µM | 0.863 | 12.9 µM | 0.647 | 0.313 µM
4 | 639-V (bladder, adherent) | 0.937 | > 8 µM | 0.989 | > 16 µM | 0.991 | > 5 µM | 0.692 | 3.13 µM | 0.905 | 10.2 µM | 0.727 | 2.45 µM | 0.531 | 1.2 µM | 0.739 | 0.53 µM
5 | 647-V (bladder, adherent) | 0.962 | > 8 µM | 0.923 | > 16 µM | 0.94 | > 5 µM | 0.929 | > 16 µM | 0.981 | > 10.2 µM | 0.871 | 9.51 µM | 0.387 | – | 0.702 | 0.463 µM
6 | 697 (lymphoblastic leukaemia, suspension) | 0.977 | > 8 µM | 0.639 | 2.22 µM | 0.982 | > 5 µM | 0.901 | 13.3 µM | 0.443 | 0.461 µM | 0.631 | 1.33 µM | 0.288 | 0.292 µM | 0.4 | 0.0705 µM
7 | 5637 (bladder, adherent) | 0.974 | > 8 µM | 0.885 | 14.5 µM | 0.979 | > 5 µM | 0.526 | 1.17 µM | 0.822 | 5.24 µM | 0.582 | 1.03 µM | 0.465 | 0.811 µM | 0.615 | 0.251 µM
8 | 8305C (thyroid, adherent) | 0.976 | > 8 µM | 0.964 | > 16 µM | 0.979 | > 5 µM | 0.927 | > 16 µM | 0.961 | > 10.2 µM | 0.657 | 1.96 µM | 0.617 | – | 0.73 | 0.705 µM
9 | 23132-87 (stomach, adherent) | 0.97 | > 8 µM | 0.919 | > 16 µM | 0.97 | > 5 µM | 0.788 | 7.3 µM | 0.893 | > 10.2 µM | 0.695 | 2.25 µM | 0.423 | 0.61 µM | 0.631 | 0.291 µM
10 | A3-KAW (B-cell lymphoma, suspension) | 0.98 | > 8 µM | 0.647 | 2.33 µM | 0.989 | > 5 µM | 0.875 | 10.4 µM | 0.84 | 5.08 µM | 0.788 | 3.45 µM | 0.334 | 0.384 µM | 0.628 | 0.26 µM
11 | CFPAC-1 (pancreas, adherent) | 0.93 | > 8 µM | 0.905 | > 16 µM | – | – | 0.742 | 5.56 µM | 0.96 | > 10.2 µM | 0.739 | 3.39 µM | 0.562 | 1.52 µM | 0.773 | 0.894 µM
12 | CHP-126 (neuroblastoma, suspension) | 0.961 | > 8 µM | – | – | 0.981 | > 5 µM | 0.969 | > 16 µM | 0.908 | > 10.2 µM | 0.955 | > 10 µM | 0.74 | 4.98 µM | 0.472 | 0.105 µM
13 | DAN-G (pancreas, adherent) | 0.992 | > 8 µM | 0.891 | 14.5 µM | – | – | 0.992 | > 16 µM | 0.969 | > 10.2 µM | 0.773 | 3.41 µM | 0.982 | > 16 µM | 0.796 | 0.807 µM
14 | EHEB (lymphoid neoplasm, suspension) | 0.931 | > 8 µM | – | – | 0.947 | > 5 µM | 0.979 | > 16 µM | – | – | 0.975 | > 10 µM | 0.804 | 12.9 µM | 0.734 | 0.807 µM
15 | GMS-10 (glioma, adherent) | 0.987 | > 8 µM | 0.988 | > 16 µM | – | – | 0.988 | > 16 µM | 0.986 | > 10.2 µM | 0.722 | 2.65 µM | 0.941 | > 16 µM | 0.864 | 1.73 µM
16 | H290 (mesothelioma, adherent) | 0.982 | > 8 µM | 0.883 | 14.6 µM | 0.94 | > 5 µM | 0.916 | > 16 µM | – | – | 0.576 | 0.987 µM | 0.628 | 2.18 µM | 0.79 | 0.81 µM
17 | HCC2998 (large intestine, adherent) | 0.947 | > 8 µM | 0.882 | > 16 µM | – | – | 0.891 | > 16 µM | 0.932 | > 10.2 µM | 0.477 | 0.541 µM | 0.514 | 1.09 µM | 0.734 | 0.567 µM
